Data: the supplement of paper PMC10126150
Values marked as one replicate rest on one cluster of the flow cell; about a third of the high ones do not repeat.

What follows are sequences tested on ATP (assay: switch fluorescence ratio, 500 uM ATP over buffer (Cy3 cluster intensity, sum of 5 cycles each) (fold (ratio)); higher = stronger signal-on switching upon ATP binding; sequences stand for … in TCGTCGGCAGCGTCAGATGTGTATAAGAGACAGTTTTTTTTTTTTTTTTTTTTTTTTT…TC). Conditions: aptamer strand: ATP DNA aptamer (quencher-CACCTGGGGGAGTATTGCGGAGGAAGG + anchor), 100 nM annealed; ATP concentration: 500 uM; one replicate.
How it was run: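 Clusters carrying Cy3-labelled switching strands on a modified Illumina MiSeq flow-cell were annealed to 100 nM quencher-labelled ATP aptamer and imaged in selection buffer. They were imaged again after 15 min with 500 uM ATP at 22 °C, over five buffer/ATP cycles with NaOH stripping and re-annealing in between. For each cluster, the fluorescence ratio is the summed Cy3 intensity of the target cycles divided by that of the buffer cycles, averaged per switch-domain sequence. Clusters outside 100-1000 RFU were left out.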
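Further: ATP exposure 15 min at 22 °C before imaging.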

Sequence | switch fluorescence ratio
AGCACCAGGC | 1.01
AGCACCTTTG | 1.06
AGCACGTGCA | 1.01
AGCACTAGTG | 1.04
AGCACTTGGT | 1.04
AGCAGACTTG | 0.998
AGCAGCCTCG | 1.04
AGCAGCGAGG | 0.99
AGCAGGCAGG | 1.06
AGCAGGGAAA | 1.01
AGCAGTAAA | 0.974
AGCAGTCTCT | 1.09
AGCAGTGCTA | 1.11
AGCAGTGTGA | 1.05
AGCATAAGAA | 0.967
AGCATGGCGG | 1.03
AGCATGGTGT | 1.05
AGCATGTATG | 0.963
AGCATTAAGC | 0.954
AGCATTAGGG | 0.987
AGCATTCGA | 1.1
AGCATTGGAC | 1.2
AGCCAAGCGA | 1.02
AGCCAAGGCC | 0.998
AGCCACGGGG | 0.972

Sequence | switch fluorescence ratio
AGCCACTTGA | 0.964
AGCCAGAGCT | 0.945
AGCCAGTTGT | 1
AGCCATGTGT | 1.03
AGCCATTGG | 1.07
AGCCCAACCA | 1.02
AGCCCGTTAT | 1.01
AGCCCTAGTT | 1.13
AGCCCTGCTA | 1.01
AGCCCTTCTC | 1.29
AGCCGAGATT | 1.01
AGCCGCGCGG | 0.997
AGCCGTTGCA | 1.05
AGCCTCAACG | 1.03
AGCCTCCGGA | 1.28
AGCCTGCTCG | 0.983
AGCCTTTAAT | 1.02
AGCGACGATT | 0.992
AGCGAGGGTG | 1.04
AGCGAGTTGT | 1.03
AGCGATCTCT | 1.32
AGCGATGTGG | 0.998
AGCGCATCCC | 1.2
AGCGCGAAA | 1.03
AGCGCGAAAG | 0.954

Sequence | switch fluorescence ratio
AGCGCGGCGT | 0.976
AGCGCGTCAA | 0.989
AGCGGACATC | 1.02
AGCGGCCAAT | 1.04
AGCGGGACAT | 0.99
AGCGGGCTCA | 1.04
AGCGGGGGCA | 1.02
AGCGGGTCTT | 0.999
AGCGGTCG | 0.918
AGCGGTCGTA | 1.08
AGCGGTGATG | 1.03
AGCGGTGGGG | 1
AGCGGTGTCT | 0.918
AGCGGTTAAC | 1.05
AGCGTATTAG | 1.02
AGCGTGGGTG | 1.03
AGCGTGTGGG | 1.02
AGCGTTACTT | 1.15
AGCGTTGGGG | 1
AGCGTTTTCT | 1.05
AGCTAAACTG | 0.9
AGCTAACTCA | 1.09
AGCTAAGTTT | 0.987
AGCTAATT | 0.987
AGCTACGTAG | 0.998

Sequence | switch fluorescence ratio
AGCTACGTGT | 1.07
AGCTAGATCA | 0.951
AGCTAGCATA | 0.991
AGCTAGCCAA | 1.02
AGCTATGAGA | 1.02
AGCTATGCCA | 0.949
AGCTATTCGA | 1.06
AGCTCACACC | 1.08
AGCTCCCGGC | 0.984
AGCTCCG | 1.05
AGCTCCTTAA | 1.31
AGCTCGAAGC | 1.04
AGCTCGAAGG | 1.04
AGCTCGAGAG | 0.988
AGCTCGTAAG | 0.982
AGCTCGTACC | 0.996
AGCTGACGTG | 1.02
AGCTGAGGTC | 1.03
AGCTGATGTT | 1.03
AGCTGCAAGG | 1
AGCTGGATGG | 0.978
AGCTGGGAGG | 1.02
AGCTGGGTAC | 1.39
AGCTGGTTAT | 0.961
AGCTGTATTC | 0.97
